Hit rate of the full screen: of about 150,000 compounds, about 540 (0.36%) showed an effect of 50% or more. The list shows a part of the results.
Test system: Plasmodium falciparum
Assay: Primary screen in NF54 nanoGlo assay, in single point, at 2uM, 72h; a lower Z score goes with more inhibition
Type: functional, Erythrocyte
Settings: timepoint 72 hour

Row | Compound | % Inhibition | Z score
1 | C[C@@H]1CN(C(=O)NCc2ccc(=O)[nH]n2)C[C@H](C)N1CC(F)(F)F | -6% | 1
2 | Cc1cc(NC(=O)NCC2CCCC2O)nn1CCC#N (configuration not stated) | 1% | -0.12
3 | Cc1nc2n(n1)CCC[C@@H]2NC(=O)Nc1ccccc1Oc1cc(F)cc(F)c1 | -11% | 1.68
4 | CO[C@H]1CC[C@@]2(OC)CCN(C(=O)c3ccc(-c4cc[nH]n4)cc3)[C@H]2C1 | -12% | 2.35
5 | CCOC1CC(CO)(NCc2cncnc2)C1(C)C (configuration not stated) | -6% | 0.59
6 | CC1CCC2(CC1)NC(=O)N(Cc1cc(Cl)c3c(c1)OCCCO3)C2=O (configuration not stated) | -13% | 2.03
7 | CC(Cc1ccccc1Cl)C(=O)NC1CCN(C(=O)Nc2ccccc2)C1 (configuration not stated) | -1% | 0.11
8 | O=C(c1cccc(-c2nc(-c3ccc(F)cc3)no2)c1)N1CCC(N2CCCCC2)CC1 | -7% | 0.76
9 | Cn1nccc1CNc1ccc(OC(F)(F)F)cn1 | 5% | -0.75
10 | COc1ccc(C)cc1[C@H](C)NC(=O)N[C@@H]1Cc2ccccc2[C@H]1O | -19% | 2.08
11 | O=S(=O)(Cc1ccco1)C1CN(S(=O)(=O)Cc2ccccc2Cl)C1 | -18% | 2.24
12 | CC[C@H]1CN(S(=O)(=O)c2ccc3c(c2)CCC(=O)N3)CCO1 | -9% | 0.8
13 | Cc1ccc(CCN(C[C@H]2CCCO2)C(=O)c2cn(C)nc2C)cc1 | -4% | 0.57
14 | CC[C@H](NC(=O)Cn1ccnc1)c1nccs1 | -6% | 0.88
15 | Cc1ccc(NC(=O)N2CCc3nc(N4CCC(C)CC4)nc(Oc4cccc(F)c4)c3C2)cc1 | -12% | 1.89
16 | CCOCCCNC(=O)c1cn(C)c2c(c(C)nn2-c2ccc(F)cc2)c1=O | -11% | 1.75
17 | Cc1cc(C(=O)Nc2nc(-c3ccc4c(c3)OCCO4)cs2)n(C)n1 | 22% | -3.09
18 | Cc1cccc(N2C(=O)C3C(c4ccccc4O)NC(Cc4c[nH]c5ccccc45)(C(=O)O)C3C2=O)c1 (configuration not stated) | -2% | 0.26
19 | CC(=O)c1c(F)cccc1NCCNC(=O)c1ccc(O)cc1 | 33% | -3.71
20 | OC[C@H]1CN(c2nc3ccccc3o2)C[C@H]1CN1CCCCC1 | -5% | 0.72
21 | Cc1noc(CNC(=NCc2ccccc2)NC2CCCC2)n1 | -7% | 0.92
22 | CC(=O)Nc1cccc(CN2C[C@H]3CCS(=O)(=O)[C@H]3C2)c1 | -4% | 0.77

Row | Compound | % Inhibition | Z score
23 | O=C(CC1CC2CCC1C2)Nc1cn[nH]c1 (configuration not stated) | -16% | 1.43
24 | CCNC(=O)NC(=O)[C@H](C)Nc1cnn(C(C)(C)C)c1 | 6% | -0.75
25 | Cc1nc(CC2CC2)sc1C(=O)N(C)c1c(C)noc1C | -6% | 0.7
26 | CN(C(=O)Cc1cc(Br)ccc1F)c1cccnc1 | 10% | -0.88
27 | CCc1nnc(CNC(=O)[C@]2(O)CCc3cc(Br)ccc3C2)o1 | 4% | -0.58
28 | C=CCC[C@@H](CN(C)Cc1cccnc1)Oc1ccc(C)nn1 | -2% | 0.31
29 | CCOc1ccc(C(=O)Nc2ccc(C)c(-c3nnnn3C3CC3)c2)cn1 | 12% | -1.32
30 | CC(C)(C)C(=O)NCCc1cscn1 | 9% | -1.18
31 | CCOc1ccc(C2=NNC(c3ccc(C)cc3)=Nc3ccccc32)cc1OCC | -11% | 1.26
32 | O=C(CN1CCn2nc(C(F)(F)F)cc2C1)NCc1cccs1 | -3% | 0.43
33 | COc1ncccc1NC(=O)c1ccoc1C | 3% | -0.43
34 | Cn1nccc1/C=C1\CC2C3CCc4cc(O)ccc4C3CCC2(C)C1O (configuration not stated) | 54% | -6.08
35 | FC(F)COc1cc(CNC2C3CCOC3C23CCC3)ccn1 (configuration not stated) | 3% | -0.29
36 | CC(=O)c1cnc(NCc2ccc3c(c2)OCO3)nc1C | -1% | 0.13
37 | Cc1ccc2c(n1)OCCN2S(=O)(=O)c1ccnn1C | -2% | 0.25
38 | COC(=O)[C@@H]1C[C@@H](N(C)C)CN1C(=O)CC(=O)Nc1ccc(C)cc1 | -9% | 1.74
39 | Cc1cc(NC(=O)c2cc(O)nc3ccccc23)n(C)n1 | 0% | 0.04
40 | Cn1ccc2c(-c3cccc(O)n3)ccnc21 | -19% | 1.7
41 | CC1CCN(C(=O)c2ccc(-c3ccccc3)[nH]2)C(CN)C1 (configuration not stated) | 7% | -0.8
42 | CCS(=O)(=O)C1CCN(Cc2cccc(OC)c2Cl)CC1 | 3% | -0.26
43 | COc1cn(C)nc1[C@H](C)Nc1ncc(C#N)cc1Cl | -14% | 1.6
44 | CC(C)Cc1nc([C@@H]2CCCCCN2)no1 | -11% | 1.39

Row | Compound | % Inhibition | Z score
45 | Cc1cc2[nH]c(=O)c(C(=O)N(C)Cc3ccccc3)cn2n1 | -46% | 5.45
46 | Cc1cc(C)c2c(CC(=O)N[C@H]3CCOC3)coc2c1C | -3% | 0.53
47 | CCc1cc(NC(=O)Cc2c(C)nn(C)c2C)nc(C)n1 | 6% | -1.2
48 | CCN1CCN(C(=O)C[C@H](CCc2ccccc2)c2c[nH]c3ccc(OC)cc23)CC1 | -4% | 0.55
49 | CC(C)n1cc2cc(C(=O)NCCc3ccccn3)sc2c1 | -8% | 0.98
50 | CC(=O)N1CCc2sc(S(N)(=O)=O)cc2C1 | -11% | 1.57
51 | Cc1cscc1NC(=O)N1C2CCC1COC2 | 7% | -1.05
52 | CCc1nn(C)c(NC(=O)C[C@H]2C(=O)NCCN2CC)c1CC | 8% | -0.76
53 | COC1CN(C(=O)C(C)C(=O)OC(C)(C)C)CCC1C (configuration not stated) | 8% | -1.55
54 | Cc1cccc(NC2CCN(C3Cc4ccccc4C3O)CC2)n1 (configuration not stated) | -2% | 0.24
55 | O=S(=O)(c1ccc(Cl)cc1Cl)N(CCO)CCO | -5% | 0.97
56 | O=C(Nc1cnns1)N[C@H]1CCCN(Cc2ccccc2)C1 | -5% | 0.68
57 | CC(C)n1nccc1NC(=O)c1cc(-c2ccccc2)nc2ccccc12 | -13% | 2.62
58 | CCOC(=O)N1CCC(N2C(=O)[C@@H]3CCCN3C2=O)CC1 | -13% | 1.69
59 | O=c1cc(CN2CCN(c3ccccc3)CC2)nc(-c2cccnc2)[nH]1 | -3% | 0.48
60 | CC(C)(NCc1cccc2c1OCO2)c1ccc(Cl)c(Cl)c1 | -1% | 0.13
61 | CCN(Cc1nnc(-c2ccccc2)o1)S(=O)(=O)c1cn(C(F)F)nc1C | 3% | -0.47
62 | FC(F)(F)C1CC(NCc2ccc3c(c2)OCCO3)C1 (configuration not stated) | 3% | -0.37
63 | CCc1noc(CN(CC)c2cc([C@H]3CCOC3)nc(N3CC(O)C3)n2)n1 | 9% | -1.24
64 | Cc1cnc(CN(C)Cc2cccnc2)cn1 | -4% | 0.77
65 | Cc1ccc(NC(=O)Cn2c(C)cc(C)c(-c3nc(-c4ccc(F)cc4)no3)c2=O)c(C)c1 | -6% | 1.13
66 | Cc1ccc(S(=O)(=O)NCCn2c3ccccc3c3c(C)cc(C)nc32)cc1 | -5% | 0.73

Row | Compound | % Inhibition | Z score
67 | O=C(Cc1cccnc1)NC1CCN(c2cnsn2)CC1 | -11% | 1.47
68 | CC[C@H](C)N(Cc1cc2ccc(F)cc2[nH]c1=O)C1CCCC1 | -12% | 2.18
69 | O=C(CCCc1ccccc1)Nc1n[nH]c([C@@H]2CCCO2)n1 | -10% | 1.53
70 | CCn1c(C)cc(=O)c2cc(C(=O)Nc3ccc(OC)cc3)ccc21 | -5% | 0.54
71 | CC(C)COc1ccc(S(=O)(=O)Nc2cnn(C)c(=O)c2)cc1 | 1% | -0.14
72 | C[C@@H]1[C@@H](c2cccc(Cl)c2)OCCN1C(=O)c1cccc(CC(=O)O)c1 | 2% | -0.25
73 | CCc1nn(C)c(Cl)c1CN1CCN(c2ccc3nccn3n2)CC1 | -7% | 1.34
74 | CC1(C)[C@@H]2CC[C@]13CS(=O)(=O)N(C(=O)c1ccco1)[C@@H]3C2 | -6% | 0.84
75 | C#CCN1CCN(CN2C(=O)NC3(Cc4ccccc4C3)C2=O)CC1 | -25% | 2.92
76 | COc1ccc(CCC(=O)N2CC[C@H](N(CCN3CCCCC3)C(=O)N(C)C)C2)cc1 | -3% | 0.35
77 | COCCN(Cc1ccncc1)S(=O)(=O)N1CCCCC1 | 2% | -0.46
78 | Cc1ccc([C@H]2CN(C(=O)c3ccccc3-c3nc[nH]n3)C[C@@H]2N(C)C)cc1 | -11% | 1.17
79 | CC(C)COC(=O)Nc1cccc(NCc2nnc(C3CC3)n2C)c1 | -18% | 1.62
80 | C/C(=C\c1ccccc1)c1nc2cccc(C)n2c1Nc1c(C)cccc1C | -10% | 1.09
81 | Cc1ccc(-c2nc3ccccn3c2Nc2ccc3c(c2)OCCO3)s1 | -13% | 2.09
82 | CC(C)n1cc(C(=O)N2CCc3ncccc3C2)cn1 | -10% | 1.05
83 | O=S1(=O)CCCN(CC2(O)CCC2)CC1 | -10% | 1.47
84 | Cc1ccncc1-c1cccc(-c2cc[nH]n2)c1 | -1% | 0.1
85 | CN(Cc1ccc(C#N)o1)[C@@H](C(N)=O)c1cccc(Br)c1 | -9% | 0.79
86 | NC(=O)c1ccc(NC(=O)N2CCCC2CC(O)c2ccco2)cc1Cl (configuration not stated) | -10% | 1.17

From ChEMBL document CHEMBL4888484, “Replenishing the malaria drug discovery pipeline: Screening and hit evaluation of the MMV Hit Generation Library 1 (HGL1) against asexual blood stage Plasmodium falciparum ,using a nano luciferase reporter read-out” (2022)
